The values that follow come from publication PMC9911399, “Two distinct binding modes provide the RNA-binding protein RbFox with extraordinary sequence specificity”.

Changes are numbered by the printed parent chain; changes in the protein carry UniProt numbers. The list shows a part of the results.

To fix the notation:
B1: AAUGAUA (DNA:RNA)
RNA: GGGAGACCGGAAUUCAGAUUGUCCAAUGAUAUUAAAUCCCGUCGUAGCCACCA
DNA 1: CAATCTGAATTCCGGTCTCCC
DNA 2: TGGTGGCTACGACGGGATT
B2: UAUCCCG (DNA:RNA)
RNA: B1 RNA with A25U, G28C, A29C, U30C, A31G
DNA 1: CAATCTGAATTCCGGTCTCCC
DNA 2: TGGTGGCTACGACGGGATT
B3: CGCAAGG (DNA:RNA)
RNA: B1 RNA with A25C, A26G, U27C, G28A, U30G, A31G
DNA 1: CAATCTGAATTCCGGTCTCCC
DNA 2: TGGTGGCTACGACGGGATT
B4: CUUUCAC (DNA:RNA)
RNA: B1 RNA with A25C, A26U, G28U, A29C, U30A, A31C
DNA 1: CAATCTGAATTCCGGTCTCCC
DNA 2: TGGTGGCTACGACGGGATT
B5: UAAGAUG (DNA:RNA)
RNA: B1 RNA with A25U, U27A, A31G
DNA 1: CAATCTGAATTCCGGTCTCCC
DNA 2: TGGTGGCTACGACGGGATT
B6: CCUUAGC (DNA:RNA)
RNA: B1 RNA with A25C, A26C, G28U, U30G, A31C
DNA 1: CAATCTGAATTCCGGTCTCCC
DNA 2: TGGTGGCTACGACGGGATT
B7: GGAUUCG (DNA:RNA)
RNA: GGGAGACCGGAAUUCAGAUUGUCCGGAUUCGUUAAAUCCCGUCGUAGCCACCA
DNA 1: CAATCTGAATTCCGGTCTCCC
DNA 2: TGGTGGCTACGACGGGATT
B8: UAAUAAG (DNA:RNA)
RNA: B7 RNA with G25U, G26A, U29A, C30A
DNA 1: CAATCTGAATTCCGGTCTCCC
DNA 2: TGGTGGCTACGACGGGATT
B9: CUCUUGC (DNA:RNA)
RNA: B7 RNA with G25C, G26U, A27C, C30G, G31C
DNA 1: CAATCTGAATTCCGGTCTCCC
DNA 2: TGGTGGCTACGACGGGATT
B10: UAGUGCU (DNA:RNA)
RNA: B7 RNA with G25U, G26A, A27G, U29G, G31U
DNA 1: CAATCTGAATTCCGGTCTCCC
DNA 2: TGGTGGCTACGACGGGATT
B11: AGAGUAU (DNA:RNA)
RNA: B7 RNA with G25A, U28G, C30A, G31U
DNA 1: CAATCTGAATTCCGGTCTCCC
DNA 2: TGGTGGCTACGACGGGATT
B12: CGUGAGG (DNA:RNA)
RNA: B1 RNA with A25C, A26G, U30G, A31G
DNA 1: CAATCTGAATTCCGGTCTCCC
DNA 2: TGGTGGCTACGACGGGATT
B13: GCGGUCC (DNA:RNA)
RNA: B7 RNA with G26C, A27G, U28G, G31C
DNA 1: CAATCTGAATTCCGGTCTCCC
DNA 2: TGGTGGCTACGACGGGATT
B14: GGACCGC (DNA:RNA)
RNA: B7 RNA with U28C, U29C, C30G, G31C
DNA 1: CAATCTGAATTCCGGTCTCCC
DNA 2: TGGTGGCTACGACGGGATT
B15: ACGAAGU (DNA:RNA)
RNA: B1 RNA with A26C, U27G, G28A, U30G, A31U
DNA 1: CAATCTGAATTCCGGTCTCCC
DNA 2: TGGTGGCTACGACGGGATT
B16: AGAGACA (DNA:RNA)
RNA: B1 RNA with A26G, U27A, U30C
DNA 1: CAATCTGAATTCCGGTCTCCC
DNA 2: TGGTGGCTACGACGGGATT
B17: CUACCGG (DNA:RNA)
RNA: B7 RNA with G25C, G26U, U28C, U29C, C30G
DNA 1: CAATCTGAATTCCGGTCTCCC
DNA 2: TGGTGGCTACGACGGGATT
B18: CGUGCGG (DNA:RNA)
RNA: B1 RNA with A25C, A26G, A29C, U30G, A31G
DNA 1: CAATCTGAATTCCGGTCTCCC
DNA 2: TGGTGGCTACGACGGGATT
B19: GCCACAG (DNA:RNA)
RNA: B7 RNA with G26C, A27C, U28A, U29C, C30A
DNA 1: CAATCTGAATTCCGGTCTCCC
DNA 2: TGGTGGCTACGACGGGATT
B20: CUGUCUC (DNA:RNA)
RNA: B1 RNA with A25C, A26U, U27G, G28U, A29C, A31C
DNA 1: CAATCTGAATTCCGGTCTCCC
DNA 2: TGGTGGCTACGACGGGATT

This assay concerns the target T1, RBFOX1 RRM (Homo sapiens, UniProt Q9NWB1 109-208).
T1 sequence: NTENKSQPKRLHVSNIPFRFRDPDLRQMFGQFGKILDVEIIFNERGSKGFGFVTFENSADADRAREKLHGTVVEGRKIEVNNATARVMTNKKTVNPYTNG
Put plainly: EMSA; HiTS-Eq, 1 nM pool, 10 min; buffer printed only for the single-RNA assays: 10 mM Tris pH 7.5, 150 mM NaCl, 3.4 mM EDTA, 0.001% NP-40, 30 C. The settings on record: tags: His6 N-terminal (pET28a); label: 5' 32P. Summed up: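 Purified RbFox RRM (wild type or mutant) was equilibrated for 10 min in 50 µL with 1 nM of a 5′-radiolabelled pool of RNA with 7 randomized nucleotides, its flanks annealed to DNA oligonucleotides, across increasing protein concentrations. Free RNA was separated by 8% native PAGE, excised, reverse-transcribed, PCR-barcoded and sequenced on an Illumina HiSeq 2500. Relative association constants came from read-count changes of each variant against the control reaction, normalised to the cognate motif.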
In general terms: In EMSA bound probe runs differently from free probe, usually more slowly.
Take B1: the binding signal is 0.00488 KA relative to UGCAUGU.

In the case of B2, the binding signal was 0.00371 KA relative to UGCAUGU.

As to B3, the binding signal is 0.00874 KA relative to UGCAUGU.

B4: the binding signal is 0.00611 KA relative to UGCAUGU.

In the case of B5, the binding signal was 0.0133 KA relative to UGCAUGU.

Take B6: the binding signal is 0.00898 KA relative to UGCAUGU.

With B7, the binding signal was 0.0153 KA relative to UGCAUGU.

As to B8, the binding signal is 0.00769 KA relative to UGCAUGU.

For B9, the binding signal was 0.0102 KA relative to UGCAUGU.

In the case of B10, the binding signal was 0.0181 KA relative to UGCAUGU.

On to B11, for which the binding signal is 0.00544 KA relative to UGCAUGU.

Turning to B12, the binding signal was 0.00739 KA relative to UGCAUGU.

As for B13, the binding signal was 0.0182 KA relative to UGCAUGU.

As to B14, the binding signal is 0.0251 KA relative to UGCAUGU.

With B15, the binding signal was 0.00549 KA relative to UGCAUGU.

Regarding B16, the binding signal was 0.00503 KA relative to UGCAUGU.

In the case of B17, the binding signal was 0.00617 KA relative to UGCAUGU.

Regarding B18, the binding signal was 0.00947 KA relative to UGCAUGU.

For B19, the binding signal is 0.00921 KA relative to UGCAUGU.

Turning to B20, the binding signal was 0.0158 KA relative to UGCAUGU.
